Data from US9102752B2, “Peptide vaccine for prevention and immunotherapy of dementia of the Alzheimer's type” (United Biomedical, Inc., priority 2013, dated 2015).

Assays:
baboon anti-Aβ antibody = assay: Epitope mapping by competitive inhibition ELISA with hyperimmune baboon sera; format: binding, baboons
[1] = tested on: Peripheral blood mononuclear cells (PBMC); assay: Lymphocyte (PBMC) proliferation, stimulation index, patients; format: cell-based, human; settings: for Stimulation index, Week 0 mean (SD): PBMCs from patient subjects collected at week 0 (before UB 311 immunization); for Stimulation index, Week 0 mean (SD) / Stimulation index, Week 16 mean (SD): coculture with the peptide; for Stimulation index, Week 16 mean (SD): PBMCs from patient subjects collected at week 16 (after UB 311 immunization); for Stimulation index, Difference mean (SD): week 16 vs week 0, PBMCs from patient subjects
Description: Peripheral blood mononuclear cells (PBMC) from patients with AD were isolated by Ficoll-hypaque gradient centrifugation. […] Cultures were incubated at 37° C. with 5% CO2 for 72 hours, and then 100 μL of supernatant was removed from each well and frozen at −70° C. for cytokine analysis. Ten μL of culture medium containing 0.5 μCi of ^3H-thymidine (^3H-TdR, Amersham, Cat No. TRK637) was added to each well and incubated for 18 hr, followed by detection of radioisotope incorporation by liquid scintillation counting. The mitogen phytohemagglutinin (PHA) was used as a positive control for lymphocyte proliferation. Cells cultured alone without Aβ peptide or PHA mitogen were used as the negative and positive controls. The stimulation index (SI) was calculated as mean counts per min (cpm) of triplicate experimental cultures with Aβ peptide divided by mean cpm of triplicate negative control cultures; a SI>3.0 was considered a significant proliferation response.
Peripheral blood mononuclear cell samples were isolated from whole blood collected at week 0 (baseline) and week 16 (4 weeks after the third dose) and then cultured in the absence or presence of various Aβ peptides.

[2] = tested on: Peripheral blood mononuclear cells (PBMC); assay: Cytokine concentrations in patient PBMC cultures (IL-2, IL-6, IL-10, TNF-α, IFN-γ); format: cell-based, human
Description: Cytokine analyses (IL-2, IL-6, IL-10, TNF-α, IFN-γ) from the PBMC cultures were performed on aliquots of culture medium with cells alone or in the presence of Aβ peptide domains or PHA. Human-specific cytokine sandwich ELISA kits (U-CyTech Biosciences, Utrecht, The Netherlands) were used to determine the concentrations (pg/mL) of individual cytokines following the manufacturer's instructions. The PBMC samples collected at week 0 and week 16 were also tested for cytokine secretion either with cells alone (negative control) or in the presence of Aβ peptides, p1412 (non-relevant peptide) or PHA mitogen (positive control) after being cultured for 3 days. The quantifiable range of the kit is between 5 and 320 pg/mL. Any measured concentration below 5 pg/mL or above 320 pg/mL was indicated as below quantification limit (BQL) or above quantification limit (AQL), respectively. However, for statistical considerations, BQL or AQL was replaced with the lower (5 pg/mL) or upper (320 pg/mL) quantifiable limit, respectively.
In order to assess the change of cell-mediated immune response after immunization, the change of mean cytokine concentrations from baseline to week 16 was compared with that of the negative controls and examined by paired Wilcoxon signed-rank test.

[3] = tested on: Peripheral Blood Mononuclear Cells (PBMCs); assay: Cytokine concentration in Cynomolgus macaque PBMC cultures (IL-2, IL-6, IL-10, IL-13, TNF-α, IFN-γ); format: cell-based; settings: PBMC from Cynomolgus macaques, 15 wpi, culture with the peptide or mitogen, mean ± SD
[4] = patient PBMCs collected at week 0, coculture with the peptide, quantifiable range 5-320 pg/mL
[5] = patient PBMCs collected at week 16, coculture with the peptide, quantifiable range 5-320 pg/mL

Substance	Stimulation index, Week 0 mean (SD) [1]	Stimulation index, Week 16 mean (SD) [1]	Stimulation index, Difference mean (SD) [1]	Mean cytokine concentration, IFN-γ (Th1), Week 0 [2, 4] [pg/mL]	Mean cytokine concentration, IL-6 (Th2), Week 0 [2, 4] [pg/mL]	Mean cytokine concentration, IL-10 (Th2), Week 0 [2, 4] [pg/mL]	Mean cytokine concentration, TNF-α (Both), Week 0 [2, 4] [pg/mL]	Mean cytokine concentration, IFN-γ (Th1), Week 16 [2, 5] [pg/mL]	Mean cytokine concentration, IL-6 (Th2), Week 16 [2, 5] [pg/mL]	Mean cytokine concentration, IL-10 (Th2), Week 16 [2, 5] [pg/mL]	Mean cytokine concentration, TNF-α (Both), Week 16 [2, 5] [pg/mL]	other results
SEQ ID NO: 67: LVFF AEDVGSNKGAIIGLMVGGVVIA (LVFFAEDVGSNKGAIIGLMVGGVVIA; PEPTIDE (1)..(26) Abeta 17-42 or APP 770(L688-A713); listed as Homo sapiens) [Aβ17-42]	0.96 (0.34)	1.04 (0.29)	0.08 (0.49)	9.67	>44.55	5.34	15.60	13.58	46.90	5.56	24.78	Percent (%) Inhibition ELISA after peptide pre-absorption of sera (baboon anti-Aβ antibody; peptide concentration 0.5 μg/mL): 9%; Percent (%) Inhibition ELISA after peptide pre-absorption of sera (baboon anti-Aβ antibody; peptide concentration 1 μg/mL): 10%; Percent (%) Inhibition ELISA after peptide pre-absorption of sera (baboon anti-Aβ antibody; peptide concentration 2 μg/mL): 5%; Percent (%) Inhibition ELISA after peptide pre-absorption of sera (baboon anti-Aβ antibody; peptide concentration 8 μg/mL): 0%; Percent (%) Inhibition ELISA after peptide pre-absorption of sera (baboon anti-Aβ antibody; peptide concentration 32 μg/mL): 7%; Mean cytokine concentration, IL-2 (Th1), Week 0 [2, 4]: 24.59 pg/mL; Mean cytokine concentration, IL-2 (Th1), Week 16 [2, 5]: 29.15 pg/mL
phytohemagglutinin [PHA]	28.73 (14.24)	27.75 (32.85)	−0.98 (26.57)	>320.00	>320.00	173.83	>313.01	>318.91	>320.00	>162.77	>300.87	Cytokine concentration, IL-2 ([3]; vaccine dose 150 μg): 96.1 ± 13.3 pg/mL; Cytokine concentration, IL-6 ([3]; vaccine dose 150 μg): 70.6 ± 15.7 pg/mL; Cytokine concentration, TNF-α ([3]; vaccine dose 150 μg): 96.1 ± 22.2 pg/mL; Cytokine concentration, IL-2 ([3]; vaccine dose 750 μg): 97.5 ± 6.6 pg/mL; Cytokine concentration, IL-6 ([3]; vaccine dose 750 μg): 66.2 ± 7.3 pg/mL; Cytokine concentration, TNF-α ([3]; vaccine dose 750 μg): 89.0 ± 13.7 pg/mL; Lymphocyte proliferation response to agent added to culture ([1]; patient PBMC, week 0 and week 16): positive proliferation responses; Cytokine secretion by patient PBMC in response to agent ([2]; change from baseline to week 16 / vs cells alone): significant increases in cytokine production
